From PubChem BioAssay AID894 (National Center for Advancing Translational Sciences (NCATS), 2007)
About 6,500 (4.3%) of roughly 150,000 compounds were called active. Inconclusive means that the source gave no clear call. Such entries were picked first, then a sample of the others. Calls follow the shape of the dose curve; as a rule, active = well fitted inhibition curve with a large enough effect (not every such curve was filed as active); inconclusive = small, poorly fitted or top-dose-only effect, or another doubt; inactive = no such curve, though single readings can be large or run the other way. Potencies beside an inconclusive call are fits to weak or partial responses and may not hold up.

molecular target: 15-hydroxyprostaglandin dehydrogenase [NAD(+)] (Homo sapiens) (UniProt P15428); assay: qHTS Assay for Inhibitors of HPGD (15-Hydroxyprostaglandin Dehydrogenase); settings: purified HPGD, NADH fluorescence kinetic, PGE2 substrate; activity change, negative = inhibition: hits give low values
Sequence of UniProt P15428 (P15428 whole entry, looked up): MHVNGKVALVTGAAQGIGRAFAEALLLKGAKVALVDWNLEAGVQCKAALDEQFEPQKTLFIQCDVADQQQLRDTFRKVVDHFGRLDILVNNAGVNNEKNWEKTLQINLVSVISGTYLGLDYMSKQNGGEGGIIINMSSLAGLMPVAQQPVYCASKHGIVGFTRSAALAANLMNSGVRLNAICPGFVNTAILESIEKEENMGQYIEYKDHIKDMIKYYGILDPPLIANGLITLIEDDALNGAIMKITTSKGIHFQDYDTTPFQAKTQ
Summary of the method: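 20 nM HPGD preincubated 15 min at room temperature with compound in 50 mM Tris-HCl pH 8, 0.01% Tween 20. Started with 1 mM NAD+ and 30 uM prostaglandin E2; NADH fluorescence (360/450 nm) read 5 times over 30-s intervals, last minus first.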
% is scaled to controls: 0 for no effect and ±100 for the full control effect; potency is read from the fitted curve at half-maximal effect; tags tell the direction and shape of the fitted curve.

Potency, active:
CCOc1nc(-c2ccccc2O)nc2ccccc12 12.6 µM
O=C(Cc1ccccc1)Nc1cccc(N2C(=O)C=CC2=O)c1 3.55 µM
COCCSc1ccccc1C(=O)NCc1ccco1 8.91 µM
Cc1cc2cc(CNC(=O)c3ccc4c(c3)OCO4)ccc2[nH]1 20 µM
Cc1ccc(C2CC(=O)N3CN(Cc4ccco4)CSC3=C2C#N)cc1 (stereo unspecified) 15.8 µM

Potency, inconclusive:
COc1ccc(OC)c(C2=Nn3c(nnc3C3CCCCC3)SC2)c1 17.8 µM [inhibitor, partial curve]
COc1ccc(/C(N)=N/OC(=O)c2cc(-c3ccccc3)nc3ccccc23)cc1 25.1 µM [inhibitor, partial curve]
Cc1cc(N2CCCCC2)nc2ccc(NC(=O)CCC(=O)NCCC(C)C)cc12 7.94 µM [inhibitor, partial curve]
Cc1ccc(C2=NN=C(NC(=O)CSc3nc(C)cc(C)n3)SC2)cc1 25.1 µM [inhibitor, single point]
COc1ccc2[nH]c3c(c2c1)CCNC3=O 28.2 µM [inhibitor, partial curve]
Clc1ccc(SCc2cc(-c3ccc(Cl)cc3)on2)cc1 39.8 µM [inhibitor, single point]
O=C(Nc1nc(-c2ccc(S(=O)(=O)N3CCCC3)cc2)cs1)c1cccs1 28.2 µM [inhibitor, single point]
CC1CCCCN1C(=O)CSc1nc(C2CC2)nc2c1cnn2-c1ccccc1 (stereo unspecified) 22.4 µM [inhibitor, partial curve]

Activity change, negative = inhibition, inactive:
Cc1noc(C)c1CSc1nnc(-c2ccccc2)n1Cc1ccco1 -10.9%
COc1ccc(C2CC(c3cc(OC)ccc3OC)n3nnnc3N2)cc1 (stereo unspecified) -14.7%
Cc1ccc(S(=O)(=O)N2CCOCC2)cc1NC(=O)c1cc2c(s1)CCC2 -4.83%
CCN(CC)C(=O)C1CCCN(c2ccc([N+](=O)[O-])cc2/C=N/NC(=O)c2cccc(O)c2)C1 (stereo unspecified) -25.9%
O=C(NC(=S)Nc1ccc2c(c1)C(=O)c1ccccc1C2=O)c1ccc(F)cc1 -14.9%
COC(=O)C(NNc1ccccc1)(NC(=O)c1cccc(F)c1)C(F)(F)F (stereo unspecified) -12%
CCN(CC)S(=O)(=O)c1ccc2c(c1)nc(SCn1nnc3ccccc3c1=O)n2CC -15.9%
COc1ccc(-n2c(=S)[nH]c3cc(C(=O)NCCCN4CCCC4=O)ccc3c2=O)c(OC)c1 -16%
